The other results are listed elsewhere or left out. Sequences were assembled here from the parent chain. Inactive controls read about 0.05.
B1: TEV protease; numbered along this chain (parent)
chain: MGESLFKGPRDYNPISSSICHLTNESDGHTTSLYGIGFGPFIITNKHLFRRNNGTLVVQSLHGVFKVKDTTTLQQHLVDGRDMIIIRMPKDFPPFPQKLKFREPQREERICLVTTNFQTKSMSSMVSDTSCTFPSGDGIFWKHWIQTKDGQCGSPLVSTRDGFIVGIHSASNFTNTNNYFTSVPKNFMELLTNQEAQQWVSGWRLNADSVLWGGHKVFMVKPEEPFQPVKEATQL

Variants of: B1
Test: raw area under fraction-flipped curve 0-4 h after induction (AUC4h, not background-subtracted), DNA-recorder readout of cleavage of the substrate (dimensionless); higher = more cleavage of the substrate by the protease variant
Settings: temperature: 34 °C; time window: 0-4 h after rhamnose induction
Description: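 In vivo DNA recorder in E. coli TOP10(DE3) ΔrhaA at 34 °C. Each TEVp single-site mutant (parent TEVp 0) is paired with a single-site variant of the 7-mer TEVs (canonical ENLYFQ|S). The substrate sits between flexible linkers in a Bxb1-sfGFP-TEVs-SsrA fusion, so cleavage stabilises Bxb1 and speeds flipping of a recombination array, read by NGS. The value is the raw area under the fraction-flipped curve over 0-4 h after rhamnose induction (AUC4h), with ≥20 reads per time point. It is not background-subtracted; inactive controls average about 0.047.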
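Also: Bxb1 expression induced with 0.2% (w/v) L-rhamnose at OD600 near 0.5, cultures sampled hourly, flipped fraction per protease–substrate barcode pair counted by paired-end Illumina sequencing.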

Variant | area with substrate ENLYFQC | area with substrate ENLYFQD | area with substrate ENLYFQH | area with substrate ENLYFQI | area with substrate ENLYFQM | area with substrate ENLYFQR | area with substrate ENLYFQS | area with substrate ENLYFQV | area with substrate ENLYFQW | area with substrate ENLYFQY | area with substrate ENLYFQK | area with substrate ENLYFQL | area with substrate ENLYFQN | area with substrate ENLYFQP | area with substrate ENLYFQT | area with substrate ENLYFQF | area with substrate ENLYFQG | area with substrate ENLYFQQ | area with substrate ENLYFQA | area with substrate ENLYFQE
R51K | 0.124 | 0.0732 | 0.082 | 0.0635 | 0.104 | 0.0555 | 0.107 | 0.054 | 0.0641 | 0.0782 | – | – | – | – | – | – | – | – | – | –
R51F | 0.167 | – | – | 0.0509 | 0.109 | 0.0527 | 0.12 | 0.0614 | 0.077 | 0.101 | 0.0718 | 0.0619 | 0.0869 | 0.0625 | 0.0625 | – | – | – | – | –
R10E | 0.0979 | – | – | 0.0628 | 0.0553 | 0.0651 | 0.0916 | – | 0.0662 | – | – | 0.0618 | 0.0771 | – | – | 0.0697 | 0.0683 | 0.0642 | – | –
P228Q | 0.111 | 0.0761 | – | 0.0547 | 0.0905 | 0.042 | 0.101 | 0.0569 | 0.0869 | 0.0738 | 0.0682 | 0.0775 | 0.0778 | – | 0.0612 | 0.0742 | 0.111 | – | 0.106 | 0.0092
P228H | – | 0.0772 | 0.0847 | 0.0479 | 0.0788 | 0.0683 | 0.0979 | – | 0.0673 | 0.071 | – | 0.0538 | 0.0518 | – | 0.0589 | – | – | – | 0.137 | –
Q234L | 0.104 | 0.0739 | – | 0.0584 | – | – | 0.0937 | 0.0384 | 0.0389 | 0.0702 | 0.0835 | 0.0718 | – | – | 0.069 | 0.0574 | – | – | 0.09 | –
T44H | 0.0348 | – | 0.0532 | 0.0537 | 0.0378 | 0.0355 | 0.055 | 0.0249 | – | 0.0447 | 0.0484 | 0.0462 | 0.0473 | – | – | – | 0.0528 | 0.0502 | – | 0.0451
G35W | 0.0512 | – | – | – | 0.0565 | 0.0589 | 0.0491 | 0.0445 | – | – | 0.0557 | – | – | – | 0.0502 | – | – | 0.0519 | – | –
M83C | 0.0976 | – | 0.0688 | – | 0.0648 | – | 0.0853 | – | 0.0752 | – | 0.0734 | 0.0617 | – | 0.0402 | 0.0665 | – | – | – | – | –
L22N | 0.0402 | – | 0.0493 | 0.0502 | – | 0.0651 | 0.0499 | 0.062 | – | – | 0.0208 | – | 0.032 | 0.0407 | 0.0484 | – | 0.0808 | 0.064 | – | 0.0469
S60P | 0.0773 | 0.0433 | 0.0532 | 0.0437 | 0.0529 | 0.0482 | 0.0511 | – | 0.0286 | 0.0669 | – | 0.0426 | 0.0417 | – | 0.0406 | – | 0.0814 | – | – | –
S60M | 0.11 | 0.0666 | 0.0776 | 0.0559 | 0.0614 | 0.0625 | 0.104 | 0.054 | 0.0778 | – | 0.0611 | 0.0634 | 0.0893 | 0.068 | 0.0615 | – | 0.0975 | – | – | –
F6M | 0.119 | – | – | 0.0709 | 0.0942 | 0.0577 | 0.102 | – | – | 0.0832 | 0.0654 | 0.0456 | 0.072 | 0.0531 | 0.0891 | 0.0669 | 0.118 | – | – | –

From the supplement of paper PMC12217912
